Data: PubChem BioAssay AID1460 (National Center for Advancing Translational Sciences (NCATS), 2008)
The campaign covered roughly 270,000 compounds. About 5,800 (2.1%) were called active. Inconclusive means that the source gave no clear call. Such entries were picked first, then a sample of the others. Calls come from the whole dose curve; as a rule, active = well fitted inhibition curve with a large enough effect; inconclusive = small, poorly fitted or top-dose-only effect; inactive = flat fitted curve, though single readings scatter. Potencies beside an inconclusive call are fits to weak or partial responses and may not hold up.

target: Microtubule-associated protein tau (Homo sapiens) (UniProt P10636); assay: qHTS for Inhibitors of Tau Fibril Formation, Thioflavin T Binding; settings: recombinant tau K18 P301L (four-repeat tau fragment), heparin-induced fibrillization, ThT fluorescence; series mostly up to 57.4 µM; note: nearly all actives have a fitted effect of over 55% in size
In short: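 Tau K18 P301L fragment (15 uM unlabeled plus 0.24 uM Alexa 594-labeled) in 100 mM sodium acetate pH 7 with compound, fibrillization induced by 20 uM heparin for 6 hr at 37 C. Thioflavin T (30 uM) added, fluorescence read after 1 hr (ex 450, em 510 nm).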
% is set by controls: 0 for no effect and ±100 for the full control effect; potency is the fitted concentration of half-maximal effect; tags give direction and shape of the fitted curve.

Chain of UniProt P10636 (P10636 whole entry, looked up, the tested form may be a part): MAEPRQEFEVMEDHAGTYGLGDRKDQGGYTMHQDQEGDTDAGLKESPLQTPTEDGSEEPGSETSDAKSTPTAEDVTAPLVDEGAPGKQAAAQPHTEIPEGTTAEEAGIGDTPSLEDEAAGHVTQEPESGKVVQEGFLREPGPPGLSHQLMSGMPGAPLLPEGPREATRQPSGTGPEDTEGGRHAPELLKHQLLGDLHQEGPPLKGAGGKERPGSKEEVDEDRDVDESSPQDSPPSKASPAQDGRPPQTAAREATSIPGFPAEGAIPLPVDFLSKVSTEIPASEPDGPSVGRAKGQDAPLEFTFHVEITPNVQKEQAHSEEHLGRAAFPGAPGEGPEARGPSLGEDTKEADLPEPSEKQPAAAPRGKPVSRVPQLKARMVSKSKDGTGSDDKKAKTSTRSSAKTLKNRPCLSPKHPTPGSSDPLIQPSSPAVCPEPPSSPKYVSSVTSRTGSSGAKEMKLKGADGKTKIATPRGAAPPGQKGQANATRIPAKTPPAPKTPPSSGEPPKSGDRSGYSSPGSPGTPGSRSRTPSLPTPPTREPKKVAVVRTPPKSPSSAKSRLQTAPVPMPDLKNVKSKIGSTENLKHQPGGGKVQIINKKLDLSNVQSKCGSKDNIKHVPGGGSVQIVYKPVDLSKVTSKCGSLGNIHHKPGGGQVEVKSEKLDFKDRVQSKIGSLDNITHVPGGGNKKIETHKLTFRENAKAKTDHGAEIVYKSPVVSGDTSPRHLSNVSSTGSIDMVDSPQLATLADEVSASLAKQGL

Structure (SMILES)	Potency	activity, negative = inhibition
COc1cccc(C2=NC(C)(C)NC(c3ccccc3O)C2)c1 (centres undefined)	inconclusive: 12.6 µM [inhibitor, partial curve]	
Cc1noc(C)c1S(=O)(=O)N1CCc2nc(COc3ccccc3)c3c(c2C1)CO[C@@H](C)C3		inactive: 6% [at 11.5 µM]
c1ccc(Cc2nnc3sc(-c4cccnc4)nn23)cc1	inactive	
CSc1ccc(/C=C(/Sc2nnc(-c3ccccc3)o2)C(=O)O)cc1	inconclusive: 0.501 µM [inhibitor, partial curve, poor fit]	
Cc1ccc(N=C2NC(=O)/C(=C/c3cccn3C)S2)cc1C	inconclusive: 10 µM [inhibitor, partial curve]	
O=C(NCCCO)Nc1ccc2nc(-c3ccco3)c(-c3ccco3)nc2c1	inconclusive: 3.16 µM [inhibitor, full curve]	
Cc1ccc(N=Nc2c(C)[nH][nH]c2=O)c(C)c1	active: 8.91 µM	
O=C(N/N=C/c1ccc([N+](=O)[O-])s1)c1cccc(Br)c1	inconclusive: 7.08 µM [inhibitor, partial curve]	
CC1CCC(C(=O)O)NC1c1cccc(N2CCCC2=O)c1 (centres undefined)		inactive: -0.399% [at 11.5 µM]
CC(C)c1ccc(OCC(O)CN2CCN(c3ccc(F)cc3)CC2)cc1 (centres undefined)	inconclusive: 20 µM [inhibitor, partial curve, poor fit]	
Cc1[nH]c2ccccc2c1-c1csc(NC(=O)CN2CCOCC2)n1	inconclusive: 15.8 µM [inhibitor, single point]	
O=C(CCc1nc2ccccc2[nH]1)N1CCN(C(=O)c2ccco2)CC1	inactive	
O=C(NN1C(=O)C2C(C1=O)C1C=CC2C12CC2)c1ccncc1 (centres undefined)	active: 10 µM	
CCc1ccccc1Nc1ccc(C(=O)O)cc1N	inconclusive: 39.8 µM [inhibitor, single point]	
CCOCCCNC(=O)c1c(NC(=O)Cc2coc3ccc(C)cc23)sc2c1CCC2	inconclusive: 25.1 µM [inhibitor, single point]	
COc1ccc(-c2noc(CN(C)Cc3ccc(C)o3)n2)cc1	inactive	
COc1ccc(C(=O)N2c3ccc(C)cc3C(C)(c3ccccc3)CC2(C)C)cc1 (centres undefined)	inconclusive: 44.7 µM [inhibitor, single point]	
C[C@@H]1NC(=O)[C@H](CCCN=C(N)N)NC(=O)c2cc([N+](=O)[O-])cc(I)c2OCC[C@@H](C(=O)NC(CC(=O)O)C(N)=O)NC1=O (some centres undefined)	inactive	
Cc1cc(N/N=C/c2ccc(O)c(C)c2O)nc(-c2ccccc2O)n1	inconclusive: 10 µM [inhibitor, partial curve]	
